Source: PubChem BioAssay AID624296 (National Center for Advancing Translational Sciences (NCATS), 2012)
Screen size: about 350,000 compounds; about 9,900 (2.8%) were called active. Inconclusive results, whose numbers are uncertain, are shown with a selection of clear calls. The call rests on the fitted dose curve; in most records, active means well fitted activation curve with a large enough effect; inconclusive means small, poorly fitted or top-dose-only effect; inactive means no such curve, though single readings can be large or run the other way. Potencies of inconclusive entries are left out as doubtful fits.

assay: A quantitative high throughput screen for small molecules that induce DNA re-replication in MCF 10a normal breast cells.; further: nearly all actives have a fitted effect of over 50% in size; on activity, positive = re-replication: % of control where 0% means no effect; conditions: MCF 10A DNA re-replication, Hoechst nuclear intensity, 48 h; activity, positive = re-replication: at 46.1 µM (top of the series)
Potency means the concentration at half of the fitted maximal effect; tags describe the fitted curve by direction and shape.

Structure (SMILES) | Potency | activity, positive = re-replication
CS(=O)(=O)c1nc(S(=O)(=O)c2ccc(Cl)cc2)c(N2CCOCC2)s1 | inactive | 
Cc1ccccc1C1CC(c2cccs2)=NN1S(C)(=O)=O (stereo not drawn) | inactive | 
CC1=NOC(=O)/C1=C/c1ccc(O)cc1 | inconclusive [activator, single point] | 
CCCCn1c(N)c(N(CC(C)C)C(=O)c2ccc(C)o2)c(=O)[nH]c1=O | inactive | 
Cc1cccc(C)c1OCc1cc(C(=O)NCC2COCCO2)no1 (stereo not drawn) | inconclusive [activator, single point] | 
O=S(=O)(c1c(F)cccc1F)N1CCCC2CCCCC21 (stereo not drawn) | inactive | 
COc1cccc2sc(Nc3nc(-c4cc5ccccc5oc4=O)cs3)nc12 | active: 1.3 µM | 
COc1cc(CCC(=O)N2CCN(S(=O)(=O)c3ccc(C)c(C)c3)CC2)cc(OC)c1OC | inconclusive [activator, partial curve, poor fit] | 
COc1ccc(NC(=O)COC(=O)CCCC2=NS(=O)(=O)c3ccccc3N2)cc1Cl | inactive | 
CCc1ccc(CN(C)C(=O)c2cc(S(=O)(=O)N3CCN(CC)CC3)ccc2Cl)cc1 | inconclusive [activator, partial curve, poor fit] | 
Cc1ccc(NC(=O)Nc2nc3ccccc3s2)cc1NC(=O)Nc1nc2ccccc2s1 | inconclusive [activator, partial curve, poor fit] | 
COc1ccccc1N1CCN(Cc2nc(-c3ccc(F)cc3)oc2C)CC1 | inactive | 
COc1ccc(C2=NC(CO)(CO)CO2)cc1 | inactive | 
COc1ccccc1-c1cc2nc(C)c(CCC(=O)NCc3ccc(F)cc3)c(C)n2n1 | inconclusive [activator, single point] | 
CCOC(=O)c1nnc(-c2ccccc2)nc1Oc1ccc(Cl)cc1 | inconclusive [activator, single point] | 
COc1cc(-c2nc(-c3ccccc3)c(-c3cc([N+](=O)[O-])ccc3C)[nH]2)cc(OC)c1OC | inconclusive [activator, full curve, poor fit] | 
CN(C)C(=S)SCCn1c(N)nc(N(C)C)nc1=O | inactive | 
Cc1ccc(NC(=O)c2cncc(Br)c2)cc1S(=O)(=O)N(C)C | inactive | 
COc1cccc(CN2CCC(n3nccc3NC(=O)CCCc3ccccc3)CC2)c1 | inconclusive [activator, partial curve, poor fit] | 
CC1CCN(C(C(=O)Nc2ccc(C(C)C)cc2)c2ccc3c(c2)OCO3)CC1 (stereo not drawn) | inconclusive [activator, single point] | 
CCCCn1c(N)c(N(CCC(C)C)C(=O)c2c(C)noc2C)c(=O)[nH]c1=O | inactive | 
COc1ccc(NC(=S)N2CCC(c3nc4ccc(Cl)cc4[nH]3)CC2)c(OC)c1 | inconclusive [activator, partial curve, poor fit] | 
O=C(Nc1ccc2sc3ccccc3c(=O)c2c1)c1ccccc1Cl | inconclusive [activator, single point] | 

Structure (SMILES) | Potency | activity, positive = re-replication
COC(=O)c1[nH]c2c(c1C)C(=O)CC(c1cccc(OC)c1)C2 (stereo not drawn) | inconclusive [activator, full curve, poor fit] | 
NC(=O)C1CCCN(C(=O)Nc2cccc3ccccc23)C1 (stereo not drawn) | inconclusive [activator, single point] | 
Cc1cccc(NS(=O)(=O)c2ccc(C(=O)NCC(c3ccccc3)N(C)C)cc2)c1C (stereo not drawn) | inconclusive [activator, single point] | 
O=C1C=C(c2cccc(Cl)c2O)C[C@@H](c2ccc(F)cc2)C1 | inconclusive [activator, partial curve, poor fit] | 
O=c1c2ccccc2nc(/C=C/c2c[nH]c3ccccc23)n1CCO | inconclusive [activator, single point] | 
COc1ccc(N2N=NN(C(C)C)C2=C(Cl)c2nnnn2-c2ccc(OC)cc2)cc1 | inconclusive [activator, single point] | 
CCn1cc(CNC(=O)c2cc(COc3ccc(F)cc3Cl)on2)cn1 | inconclusive [activator, single point] | 
CCOc1ccc(-c2[nH]ncc2-c2ccc(OC)c(OC)c2)c(O)c1 | inconclusive [activator, full curve, poor fit] | 
CC1(C)Cc2ccccc2-c2nc3ccccc3c(=O)n21 | inconclusive [activator, partial curve] | 
Cc1oc2c(c1C(=O)N1CCC(C)CC1)C(=O)c1ccccc1C2=O | inactive | 
O=C(c1ccc(S(=O)(=O)N2CCOCC2)cc1)N1CCN(c2ccccn2)CC1 | active: 1.46 µM | 
NC(=S)N=Nc1c(O)n(Cc2ccc(Br)cc2)c2ccccc12 | active: 5.8 µM | 
O=C(N/N=C/c1ccncc1)c1ccc(OCc2ccccc2)cc1 | inactive | 
C[C@@]12CCC=C[C@H]1[C@H](c1ccc3ccccc3c1Br)N(Cc1ccccc1)C2=O | inconclusive [activator, single point] | 
Cc1cc2c(cc1C)CSC(c1ccccc1O)SC2 | inconclusive [activator, single point] | 
Cc1ccc(C(=O)Nc2ccc(CN3CCS(=O)(=O)CC3)cc2)cc1C | inactive | 
CCCC(=O)Oc1ccccc1C1SCc2cc(C)c(C)cc2CS1 | inconclusive [activator, single point] | 
Cc1cc(C)c2cc(C#N)c(N3CCCC3)nc2c1 | inconclusive [activator, partial curve] | 
S=C(NC1CCCCC1)N(CCc1ccccc1)CCc1ccccc1 | inconclusive [activator, partial curve, poor fit] | 
Cc1ccc2nc(-c3cccc(-c4cccc(Cl)c4)c3)c(NCc3ccccc3)n2c1 | active: 7.31 µM | 
O=c1[nH]c(SCc2n[nH]c(=S)n2-c2ccccc2)nc2sc3c(c12)CCC3 | inconclusive [activator, partial curve, poor fit] | 
CCN1CCN(CCOc2ccccc2-c2ccccc2)CC1 | inconclusive [activator, partial curve, poor fit] | 
Oc1ccc(N2CCN(Cc3cc4c(cc3Br)OCCO4)CC2)cc1 | inconclusive [activator, partial curve] | 

Structure (SMILES) | Potency | activity, positive = re-replication
COc1ccccc1N1CCN(CC(=O)c2c(C)[nH]c3ccccc23)CC1 | inconclusive [activator, single point] | 
COc1cc(OC)cc(C(=O)Nc2ccc(N3CCN(C(=O)c4cccs4)CC3)cc2)c1 | active: 18.4 µM | 
C[C@H](NC(=O)c1[nH]cnc1C(=O)N[C@H](C)c1ccccc1)c1ccccc1 | inactive | 
CC[C@]1(O)CC2CN(CCc3c([nH]c4ccccc34)[C@@](C(=O)OC)(c3cc4c(cc3OC)N(C)[C@H]3[C@@](O)(C(=O)OC)[C@H](OC(C)=O)[C@]5(CC)C=CCN6CC[C@]43[C@@H]65)C2)C1 (stereo partly drawn) | inconclusive [activator, full curve, poor fit] | 
CCOC(=O)N1CCN(C(=O)COc2cc(=O)n(C)c3ccccc23)CC1 | inactive | 
CSc1nc(N2CCOCC2)c2sccc2n1 | inconclusive [activator, partial curve, poor fit] | 
COC(=O)c1ccc(-c2sc3nc(N4CCOCC4)c4c(c3c2N)CC(C)(C)OC4)o1 | inconclusive [activator, partial curve, poor fit] | 
Cc1cnc(CN(C)C(=O)c2ccc3oc(Cc4ccccc4)nc3c2)[nH]1 | inactive | 
O=C(NN1C(=O)/C(=C/c2cccs2)SC1=S)c1cccnc1 | inconclusive [activator, partial curve, poor fit] | 
C[C@@H]1C(c2cccc(Cl)c2)=NN(c2ccc(Br)cc2)[C@H]1C(=O)N1CCOC1=O | inconclusive [activator, full curve, poor fit] | 
CCNC(=O)N(C)C[C@H]1N[C@@](CC)(C(=O)OC)[C@H]2C(=O)N(Cc3ccccc3)C(=O)[C@@H]12 | inconclusive [activator, partial curve] | 
COc1ccc2nc3ccccc3nc2c1NC(=O)c1ccc(Br)cc1 | inconclusive [activator, partial curve, poor fit] | 
Cc1cccc(N2CC(C)Cn3c2nc2c3c(=O)[nH]c(=O)n2C)c1 (stereo not drawn) | inactive | 
COc1cc(/C=C/C(=O)O)ccc1OS(=O)(=O)c1ccc(C)cc1 | inactive | 
N#CCC(=O)Nc1ccc(C(=O)OCC(=O)N(Cc2ccccc2)C2CCS(=O)(=O)C2)cc1 (stereo not drawn) | inconclusive [activator, single point] | 
CCOc1ccc(C(=O)CCN2CCOCC2)cc1 | active: 18.4 µM | 
Cc1ccc2nc(-c3cc(N)cc(N)c3)oc2c1 | inactive | 
O=C(/C=C/c1ccc(Br)cc1)NC(=O)c1ccccc1O |  | inactive: 5.39% [at 9.22 µM]
Clc1ccc(/C=C/c2ncc3ccccn23)cc1 | active: 18.4 µM | 
Cc1c(C(=O)NCC2CCCO2)oc2ccc3c(c12)C(=O)CC(C)(C)O3 (stereo not drawn) | inconclusive [activator, partial curve, poor fit] | 
Cc1ccc(NC(=O)CCC(=O)N2CCN(S(=O)(=O)c3ccc(C)cc3)CC2)cc1 | inactive | 
CCC1Cc2c(nc(N)c3c(N)nc(N4CCOCC4)c(C#N)c23)O1 (stereo not drawn) | inactive | 
